Data taken from PubChem BioAssay AID686971 (National Center for Advancing Translational Sciences (NCATS), 2013).
Among all 360,000 compounds or so, about 7,500 (2.1%) were called active. This list was built around the results that the source calls inconclusive (neither active nor inactive); the mix of calls is not that of the screen. Calls follow the shape of the dose curve; as a rule, active = well fitted cell-killing curve with a large enough effect; inconclusive = small, poorly fitted or top-dose-only effect, or effect the other way, or another doubt; inactive = no such curve, though single readings can be large or run the other way. Potencies of inconclusive entries are left out as doubtful fits.

Experiment: qHTS for induction of synthetic lethality in tumor cells producing 2HG: qHTS for the HT-1080-IDH1KD cell line;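 as to activity, negative = toxicity: 0% = DMSO wells and -100% = cell-free medium wells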
Conditions: HT-1080 IDH1 knockdown viability, ATP luminescence, 48 h; activity, negative = toxicity: at 46.1 µM (top of the series) unless noted
Procedure, shortened: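 Using the IDH1-knockdown HT-1080 line run in the same batch and compound series as the NT line, viability after 48 h at 37 °C was determined by CellTiter-Glo luminescence and expressed as % activity.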
Potency is read from the fitted curve at half-maximal effect; tags tell the direction and shape of the fitted curve.

Question: With `Nc1ccc(S(=O)(=O)c2ccc(NC(=O)c3cccnc3)cc2)cc1` as the compound, how does the “activity, negative = toxicity” value read?
Answer: inactive: -3.89%

Question: Which “activity, negative = toxicity” value does the source give for `CC(NC(=O)CSc1ncccn1)c1ccc(Cl)cc1Cl` (stereo not given) here?
Answer: inactive: 6.91%

Question: For `Cc1ccc(Cl)cc1-c1cc(C(=O)NCc2cccc(Cl)c2)[nH]n1`, which Potency is on record?
Answer: inconclusive [cytotoxic, single point]

Question: With `COc1ccc(CC2(CO)CCN(C(C)COc3ccccc3)CC2)cc1` (stereo not given) as the compound, how does the Potency read?
Answer: inconclusive [cytotoxic, single point]

Question: For `COc1cccc(-c2c(-c3ccccc3OC)ncn2Cc2cccc(-c3ccccc3)c2)c1`, which Potency is on record?
Answer: inconclusive [cytotoxic, single point]

Question: Which Potency does the source give for `CCCCCNC(=O)C(CCc1ccccc1)n1c(=O)c(-c2cc3ccccc3[nH]2)nc2ccccc21` (stereo not given) here?
Answer: inconclusive [cytotoxic, single point]

Question: For `O=C1CCN1C1(C(=O)NC2CCCCC2)CCCC1`, which “activity, negative = toxicity” value is on record?
Answer: inactive: 15.6%

Question: With `Nc1ccc(Br)c2c1C(=O)c1ccccc1C2=O` as the compound, how does the Potency read?
Answer: inconclusive [cytotoxic, partial curve]

Question: With `COc1cc(OC)c2c(-c3cccc(-c4ccoc4)c3)cc(=O)oc2c1` as the compound, how does the Potency read?
Answer: inconclusive [cytotoxic, single point]

Question: Which “activity, negative = toxicity” value does the source give for `Cc1cccc(OCC(=O)Nc2ccncc2)c1` here?
Answer: inactive: -1.24%

Question: For `COc1ccc(C=O)cc1COc1ccc2c(c1)OCO2`, which Potency is on record?
Answer: active: 23.1 µM

Question: Which “activity, negative = toxicity” value does the source give for `N#C/C(=C\c1c(F)cccc1Cl)C(=O)NC1CC1` here?
Answer: inactive: -11.8%

Question: Which Potency does the source give for `Fc1ccccc1CNc1ncnc2sccc12` here?
Answer: inconclusive [cytotoxic, full curve]

Question: For `COc1cc(OC)c(C2=NOC(C(=O)NCc3ccc4c(c3)OCO4)C2)cc1Cl` (stereo not given), which Potency is on record?
Answer: inconclusive [cytotoxic, single point]

Question: With `C=CCn1c(SCc2c(C)noc2C)nc2sc(C)c(C)c2c1=O` as the compound, how does the Potency read?
Answer: active: 11.2 µM

Question: For `O=C1NC[C@H](CCCCN2CCN(CC3CCCCC3)C(=O)C2=O)N(CCc2ccccc2)C1=O`, which “activity, negative = toxicity” value is on record?
Answer: inactive: 18.5%

Question: Which Potency does the source give for `Oc1ccc2ccccc2c1C=NNc1ccccn1` here?
Answer: inconclusive [cytotoxic, partial curve, poor fit]

Question: For `CCN(c1ccccc1)S(=O)(=O)c1ccc(C(=O)NC2CCN(Cc3ccccc3)CC2)cc1`, which Potency is on record?
Answer: inconclusive [cytotoxic, partial curve]

Question: With `CCCOc1ccc(F)cc1-c1cc(C(=O)Nc2cc(OC)c(OC)c(OC)c2)[nH]n1` as the compound, how does the Potency read?
Answer: inconclusive [cytotoxic, single point]

Question: For `Cc1cccc(C(=O)N2CCc3cc(-c4nc(NC(=O)CN5CCCC5)sc4C)ccc32)c1`, which Potency is on record?
Answer: inconclusive [cytotoxic, single point]

Question: Which Potency does the source give for `Oc1c(C(c2ccc(Cl)cc2)N2CCCC2)cc(Cl)c2cccnc12` (stereo not given) here?
Answer: inconclusive [cytotoxic, partial curve]

Question: With `CCOC(=O)C1CCN(S(=O)(=O)c2ccc3c4c2CC(=O)N4CC(C)S3)CC1` (stereo not given) as the compound, how does the “activity, negative = toxicity” value read?
Answer: inactive: 0.231%

Question: Which Potency does the source give for `Cc1cc(C)cc(NC(=O)c2ccc(CN3CCc4ccccc4C3)cc2)c1` here?
Answer: active: 11.6 µM

Question: For `O=C(O)c1ccccc1Nc1ccc([N+](=O)[O-])cc1`, which Potency is on record?
Answer: inconclusive [cytotoxic, partial curve, poor fit]

Question: With `CCC(C(=O)Nc1cccc(C(F)(F)F)c1)c1ccccc1` (stereo not given) as the compound, how does the Potency read?
Answer: inconclusive [cytotoxic, single point]

Question: For `COc1cc(SC)ccc1C(=O)Nc1nc2ccccc2[nH]1`, which Potency is on record?
Answer: active: 1.46 µM

Question: Which “activity, negative = toxicity” value does the source give for `COc1ccccc1N1CCN(c2cc(=O)n(-c3ccccc3Cl)c(=O)[nH]2)CC1` here?
Answer: inactive: -25.4%

Question: With `C=C(C)[C@@H]1CCC2(C(=O)O)CC[C@]3(C)[C@H](CC[C@@H]4[C@@]5(C)CCC(=O)C(C)(C)[C@@H]5CC[C@]43C)[C@@H]12` (stereo not given in full) as the compound, how does the “activity, negative = toxicity” value read?
Answer: inactive: 11.4%

Question: For `COc1cc(C2Nc3ccccc3C(=O)N2c2ccc3c(c2)OCCO3)ccc1OCC(C)C` (stereo not given), which Potency is on record?
Answer: inconclusive [cytotoxic, partial curve]

Question: Which “activity, negative = toxicity” value does the source give for `Cc1occc1C(=O)N/N=C/c1ccc(OCc2ccccc2)cc1` here?
Answer: inactive: -6.22%

Question: With `CC(=O)Nc1nnc(SCc2ccc(C(=O)Nc3ccccc3F)cc2)s1` as the compound, how does the Potency read?
Answer: inconclusive [cytotoxic, single point]

Question: For `COC(=O)C1(C(=O)OC)C2CCCCC2N(S(=O)(=O)c2ccc(C)cc2)[C@@H]1CC(C)=O` (stereo not given in full), which “activity, negative = toxicity” value is on record?
Answer: inactive: -2.3%

Question: With `CN(C)c1ccc(CNC(=O)C2(C)Cc3c(-c4cccc(C(N)=O)c4)ccnc3O2)cc1` (stereo not given) as the compound, how does the Potency read?
Answer: inconclusive [cytotoxic, single point]

Question: With `CCOC(=O)c1c(C)c(C(=O)Nc2ccc(N(C)C)cc2)c(C)n1CC` as the compound, how does the Potency read?
Answer: active: 7.08 µM

Question: With `Cc1ccc2nc(/C(C#N)=C\c3ccc([N+](=O)[O-])o3)[nH]c2c1` as the compound, how does the Potency read?
Answer: active: 2 µM

Question: Which Potency does the source give for `Oc1ccc(C=NNC(=S)Nc2ccccc2)nc1` here?
Answer: active: 4.61 µM

Question: With `COc1ccc(-c2cc(C)no2)cc1S(=O)(=O)N1CCCN(Cc2ccc(F)cc2)C1` as the compound, how does the Potency read?
Answer: inconclusive [cytotoxic, partial curve]

Question: Which Potency does the source give for `CC(O)(c1ccc(F)c(F)c1)c1nc(-c2cc3ccccc3o2)cs1` (stereo not given) here?
Answer: inconclusive [cytotoxic, single point]

Question: With `Nc1nc2ccccc2n1CCOc1ccccc1Cl` as the compound, how does the Potency read?
Answer: inconclusive [cytotoxic, partial curve]

Question: Which “activity, negative = toxicity” value does the source give for `O=C(c1ccc2oc(CCCc3ccccc3)nc2c1)N1CCCC1` here?
Answer: inactive: 8.96%

Question: For `CCN(CC)C(=O)Oc1ccc2ccccc2c1Br`, which Potency is on record?
Answer: inconclusive [cytotoxic, partial curve]

Question: For `O=C1CC(/C=C/c2cccnc2)=Nc2ccccc2N1`, which Potency is on record?
Answer: inconclusive [cytotoxic, single point]

Question: For `COC(=O)[C@@]1(C(C)C)N=C(c2cc(OC)c(OC)c(OC)c2)[C@]2(O1)C(=O)N(C)c1ccc(Br)cc12`, which Potency is on record?
Answer: inconclusive [cytotoxic, single point]

Question: Which “activity, negative = toxicity” value does the source give for `Cc1nonc1OCCN1CCN(c2ccc([N+](=O)[O-])cc2)CC1` here?
Answer: inactive: -4.44%

Question: Which “activity, negative = toxicity” value does the source give for `COc1ccccc1-c1c(C)nn2c(N3CCC4(CC3)OCCO4)cc(C)nc12` here?
Answer: inactive: -0.903%

Question: With `COc1ccc(CNC(=O)COC(=O)c2ccc(OCC3CCCO3)cc2)cc1` (stereo not given) as the compound, how does the Potency read?
Answer: inconclusive [cytotoxic, single point]

Question: With `CCCNC(=O)c1cc2c(c(-c3cccc(-c4cc5ccccc5o4)c3)n1)[C@@H](CCO)N(C(=O)NC(C)C)C2` as the compound, how does the Potency read?
Answer: inconclusive [cytotoxic, single point]

Question: For `Cc1cc(Sc2nnc(/N=C/N(C)C)s2)c2ccccc2n1`, which Potency is on record?
Answer: active: 18.4 µM

Question: With `Cc1ccc2ccccc2c1C(O)c1ncc(-c2ccccc2Cl)[nH]1` (stereo not given) as the compound, how does the Potency read?
Answer: inconclusive [cytotoxic, single point]

Question: For `CCCOc1ccc2oc(=O)c3c(c2c1)CCCN3C(=O)CN(C)Cc1ccccc1`, which “activity, negative = toxicity” value is on record?
Answer: inactive: -12%

Question: Which Potency does the source give for `CCC(C(=O)c1ccc(O)cc1)c1ccccc1` (stereo not given) here?
Answer: inconclusive [cytotoxic, partial curve]

Question: Which “activity, negative = toxicity” value does the source give for `Cc1ccc2[nH]c3c(=O)n(Cc4ccncc4)cnc3c2c1` here?
Answer: inactive: -9.64%

Question: Which “activity, negative = toxicity” value does the source give for `COc1ccc(C(O)Cc2nc3ccccc3n2C)cc1OC` (stereo not given) here?
Answer: inactive: 2.48%

Question: For `COc1ccc(-c2noc(CCCC(=O)NC3CCCC3)n2)cc1`, which “activity, negative = toxicity” value is on record?
Answer: inactive: -23.7%

Question: Which “activity, negative = toxicity” value does the source give for `COc1ccc(S(=O)(=O)N2CCN(C(=O)c3cccs3)CC2)cc1` here?
Answer: inactive: 8.11%

Question: For `N#Cc1c(-c2ccc3c(c2)OCO3)ccn2nc(-c3cccc(C(F)(F)F)c3)nc12`, which Potency is on record?
Answer: inconclusive [cytotoxic, single point]

Question: With `CCN(CC)S(=O)(=O)c1ccc(N=Nc2c(N)[nH]c(=O)[nH]c2=O)cc1` as the compound, how does the “activity, negative = toxicity” value read?
Answer: inactive: 14.4%

Question: With `COc1ccccc1OP(=O)(O)Oc1ccccc1OC` as the compound, how does the “activity, negative = toxicity” value read?
Answer: inactive: 7.85%

Question: With `CC(C)(C)OC(=O)CC1(C#N)c2ccccc2C(Br)=CN1C(=O)c1ccccc1` (stereo not given) as the compound, how does the Potency read?
Answer: inconclusive [cytotoxic, single point]

Question: With `CC(C)(C)c1ccc(CC(=O)N2CCC2(C)C(=O)NS(=O)(=O)c2ccc(C#N)cc2)cc1` (stereo not given) as the compound, how does the “activity, negative = toxicity” value read?
Answer: inactive: 4.48%

Question: For `CCN(CC)CCNC(=O)NC1CCCCC1`, which activity, negative = toxicity is on record?
Answer: inconclusive: -4.86% [cytotoxic]

Question: For `O=C(c1cc2ccccc2c(=O)o1)N1CCCCCC1`, which Potency is on record?
Answer: inconclusive [rising, partial curve]

Question: With `COc1cccc(/C=C2\SC(=S)N(CCCC(=O)N3CCCCC3CCO)C2=O)c1` (stereo not given) as the compound, how does the “activity, negative = toxicity” value read?
Answer: inactive: -2.88%

Question: Which “activity, negative = toxicity” value does the source give for `COc1ccc2c(CN3CCN(Cc4ccccc4)CC3)cc(=O)oc2c1` here?
Answer: inactive: -15.7%

Question: With `Cc1n[nH]c(=O)nc1N/N=C/c1cccs1` as the compound, how does the Potency read?
Answer: inconclusive [cytotoxic, single point]

Question: With `O=C(NCc1cccnc1)/C(=C\c1ccc(-c2ccc(Cl)c(Cl)c2)o1)S(=O)(=O)c1ccccc1` as the compound, how does the Potency read?
Answer: inconclusive [cytotoxic, single point]

Question: With `COc1ccc(O)c(/C=N/NC(=O)c2ccc(N3CCCC3=O)cc2)c1` as the compound, how does the Potency read?
Answer: active: 23.1 µM

Question: With `COc1ccc(-c2noc(CSc3nnc(Cc4ccccc4)n3-c3ccc(Cl)cc3)n2)cc1` as the compound, how does the Potency read?
Answer: inconclusive [cytotoxic, single point]

Question: For `COc1cc2c(cc1OC)CN(C(=O)c1sc(-c3cnccn3)nc1C)CC2`, which “activity, negative = toxicity” value is on record?
Answer: inactive: -1.61%

Question: For `O=c1oc2ccccc2c(NCc2cccc(F)c2)c1[N+](=O)[O-]`, which “activity, negative = toxicity” value is on record?
Answer: inactive: -13.5%

Question: For `COCCCNc1ncnc2sc3c(c12)CCC(C)C3` (stereo not given), which activity, negative = toxicity is on record?
Answer: inconclusive: -39.5% [cytotoxic]

Question: Which Potency does the source give for `CC(C)=CCc1c(O)c(CC=C(C)C)c2c(c1O)C(=O)CC(c1ccc(O)cc1)O2` (stereo not given) here?
Answer: inconclusive [cytotoxic, single point]

Question: For `Cc1ccc(OS(=O)(=O)c2ccc(N3C(=O)CCC3=O)cc2)cc1`, which “activity, negative = toxicity” value is on record?
Answer: inactive: -18.3%

Question: Which Potency does the source give for `COC(=O)[C@H](Cc1ccccc1)NC(=O)N1CCN(Cc2ccccc2)CC1` here?
Answer: inconclusive [cytotoxic, single point]

Question: Which Potency does the source give for `CCN(CC(=O)Nc1ccc(NC(C)=O)cc1)C(=O)CCCOc1ccc(C(C)(C)C)cc1` here?
Answer: inconclusive [cytotoxic, single point]
